# Results published in PubChem BioAssay AID2451 (National Center for Advancing Translational Sciences (NCATS), 2010).
# The whole screen tested about 290,000 compounds, of which about 2,100 (0.72%) were called active. This list was built around the results that the source calls inconclusive (neither active nor inactive); the mix of calls is not that of the screen. Calls come from the whole dose curve; as a rule, active = well fitted inhibition curve with a large enough effect; inconclusive = small, poorly fitted or top-dose-only effect, or effect the other way; inactive = flat fitted curve, though single readings scatter. Where the call is inconclusive, the potency comes from a doubtful curve fit.
# Target: Fructose-bisphosphate aldolase (Giardia intestinalis (strain ATCC 50803 / WB clone C6)) (UniProt A8B2U2)
# Chain of UniProt A8B2U2 (A8B2U2 whole entry, looked up): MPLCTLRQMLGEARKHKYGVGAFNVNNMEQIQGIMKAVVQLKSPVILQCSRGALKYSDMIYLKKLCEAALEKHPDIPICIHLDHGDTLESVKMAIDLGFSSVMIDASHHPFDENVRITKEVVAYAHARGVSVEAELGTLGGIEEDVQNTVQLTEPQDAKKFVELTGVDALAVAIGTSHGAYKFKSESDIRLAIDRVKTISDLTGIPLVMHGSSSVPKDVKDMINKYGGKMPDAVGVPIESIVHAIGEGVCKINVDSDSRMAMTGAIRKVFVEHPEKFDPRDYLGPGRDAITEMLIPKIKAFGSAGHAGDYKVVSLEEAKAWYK
# Assay: qHTS Assay for Inhibitors of Fructose-1,6-bisphosphate Aldolase from Giardia Lamblia; note: nearly all actives have a fitted effect of over 55% in size
# Conditions: purified Giardia FBPA; series mostly up to 59.6 µM
# How it was run: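 40 nM FBPA preincubated 10 min at RT with compound (up to 57.5 uM final), then substrate plus GAPDH/TPI/NAD/arsenate coupling and diaphorase/resazurin added. Fluorescence read after 20 min at RT, 525/598 nm.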
# Potency is the fitted concentration of half-maximal effect; tags give direction and shape of the fitted curve.
row,Compound,Potency
1,O=C(c1cc2ccccc2oc1=O)N(Cc1cccc(Br)c1)C1CCS(=O)(=O)C1 (stereo unspecified),inactive
2,C=CCOc1ccc(CNc2ccc3[nH]c(=O)[nH]c3c2)cc1OC,"inconclusive: 4.46 µM [inhibitor, partial curve]"
3,CN(C)N1C(N)=C(C#N)C(c2cccs2)C2=C1CCCC2=O (stereo unspecified),"inconclusive: 17.7 µM [inhibitor, partial curve]"
4,Cc1ccc(OCCCCN2CCc3ccccc3C2)c(C)c1,"inconclusive: 39.8 µM [inhibitor, single point]"
5,CCN(CC)S(=O)(=O)c1ccc(O)c(NC(=O)c2cc(-c3cc(OC)c(OC)c(OC)c3)nc3ccccc23)c1,inactive
6,O=C(O)c1ccc2c(c1)C(=O)/C(=C\c1ccco1)C2=O,"inconclusive: 17.7 µM [inhibitor, single point]"
7,Cc1ccc2nsnc2c1S(=O)(=O)N1CCN(Cc2ccc3c(c2)OCO3)CC1,inactive
8,C=C1C(=O)OC(CCCCCCCC)C1C(=O)O (stereo unspecified),"inconclusive: 15.8 µM [activator, single point]"
9,O=C(c1ccco1)N1CCN(S(=O)(=O)c2ccccc2[N+](=O)[O-])CC1,inactive
10,Nc1ncnc(NNC(=O)CNC(=O)c2c(F)cccc2Cl)c1[N+](=O)[O-],active: 15.8 µM
11,Fc1ccc(/C=N/Nc2nccnc2Cl)cc1,"inconclusive: 39.8 µM [inhibitor, partial curve]"
12,Cn1ccnc1P(=S)(c1nccn1C)c1nccn1C,active: 7.94 µM
13,O=C(Nc1ccc(Cl)cc1)O/N=C(\c1ccccc1)c1ccccn1,inactive
14,CCOC(=O)C1CCN(C2=C(NS(=O)(=O)c3ccc(Cl)cc3)C(=O)c3ccccc3C2=O)CC1,"inconclusive: 19.9 µM [inhibitor, partial curve]"
15,C/C(=N\NC(=S)NC1CCCCC1)c1cccs1,inactive
16,CN(CC(=O)O)c1ccc(S(=O)(=O)N2CCOCC2)cc1[N+](=O)[O-],inactive
17,O=C(COc1ccccc1)NCC(=O)N/N=C/c1cc(Br)ccc1OCc1ccccc1,inactive
18,O=C(Nc1nncs1)c1cc(S(=O)(=O)N2CCCCC2)ccc1Cl,"inconclusive: 31.6 µM [inhibitor, single point]"
19,CCCCCCCCCCCCCCCCSCC(COC)COP(=O)([O-])OCC[N+](C)(C)C (stereo unspecified),inactive
20,CCS(=O)(=O)N1CCC(N2CCC(C)CC2)CC1,"inconclusive: 15.8 µM [inhibitor, partial curve]"
21,CC(=O)C1=C(C)OC(N)=C(C#N)C1c1cccc([N+](=O)[O-])c1 (stereo unspecified),"inconclusive: 17.7 µM [inhibitor, partial curve]"
